In the supplement of paper PMC8728848:
The other results are listed elsewhere or left out.

Assays:
Experiment in all cases: glycan array binding signal (z-score within array); higher = stronger binding
Settings in all cases: glycan notation: IUPAC condensed, linker removed; mutation: R343A
[1] = molecular target: Gal(b1-4)GlcNAc(b1-6)GalNAc
In short: (§1)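 The binding signal is a Z-score computed within each array and averaged over linkers. Arrays of the same protein sequence at different concentrations or buffers were also averaged together. Data originate from 3228 arrays in the Consortium for Functional Glycomics database, kept only where the protein sequence was available.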

[2] = molecular target: Gal(b1-4)GlcNAc(b1-6)[Gal(b1-3)]GalNAc
In short: as §1

Gal3S(b1-3)GalNAc = molecular target: Gal3S(b1-3)GalNAc
In short: as §1

Gal3S(b1-3)GlcNAc = molecular target: Gal3S(b1-3)GlcNAc
In short: as §1

[3] = molecular target: Gal3S(b1-3)[Fuc(a1-4)]GlcNAc
In short: as §1

Gal3S(b1-4)Glc = molecular target: Gal3S(b1-4)Glc
In short: as §1

Gal3S(b1-4)Glc6S = molecular target: Gal3S(b1-4)Glc6S
In short: as §1

Gal3S(b1-4)GlcNAc = molecular target: Gal3S(b1-4)GlcNAc
In short: as §1

Gal3S(b1-4)GlcNAc6S = molecular target: Gal3S(b1-4)GlcNAc6S
In short: as §1

[4] = molecular target: Gal3S(b1-4)[Fuc(a1-3)]Glc
In short: as §1

Gal3S4S(b1-4)GlcNAc = molecular target: Gal3S4S(b1-4)GlcNAc
In short: as §1

Gal3S6S(b1-4)GlcNAc = molecular target: Gal3S6S(b1-4)GlcNAc
In short: as §1

Gal3S6S(b1-4)GlcNAc6S = molecular target: Gal3S6S(b1-4)GlcNAc6S
In short: as §1

Gal4S(b1-4)GlcNAc = molecular target: Gal4S(b1-4)GlcNAc
In short: as §1

Gal4S6S(b1-4)GlcNAc = molecular target: Gal4S6S(b1-4)GlcNAc
In short: as §1

Gal6S(b1-4)Glc = molecular target: Gal6S(b1-4)Glc
In short: as §1

Gal6S(b1-4)Glc6S = molecular target: Gal6S(b1-4)Glc6S
In short: as §1

Gal6S(b1-4)GlcNAc = molecular target: Gal6S(b1-4)GlcNAc
In short: as §1

Gal6S(b1-4)GlcNAc6S = molecular target: Gal6S(b1-4)GlcNAc6S
In short: as §1

GalNAc(a1-3)Gal = molecular target: GalNAc(a1-3)Gal
In short: as §1

GalNAc(a1-3)GalNAc = molecular target: GalNAc(a1-3)GalNAc
In short: as §1

GalNAc(b1-3)Gal = molecular target: GalNAc(b1-3)Gal
In short: as §1

[5] = molecular target: GalNAc(b1-3)Gal(a1-4)Gal(b1-4)GlcNAc
In short: as §1

GalNAc(b1-3)GalNAc = molecular target: GalNAc(b1-3)GalNAc
In short: as §1

GalNAc(b1-4)GlcNAc = molecular target: GalNAc(b1-4)GlcNAc
In short: as §1

Glc(a1-4)Glc = molecular target: Glc(a1-4)Glc
In short: as §1

Glc(a1-6)Glc(a1-6)Glc = molecular target: Glc(a1-6)Glc(a1-6)Glc
In short: as §1

Glc(b1-4)Glc = molecular target: Glc(b1-4)Glc
In short: as §1

Glc(b1-6)Glc = molecular target: Glc(b1-6)Glc
In short: as §1

GlcA(b1-3)Gal = molecular target: GlcA(b1-3)Gal
In short: as §1

GlcA(b1-3)GlcNAc = molecular target: GlcA(b1-3)GlcNAc
In short: as §1

GlcA(b1-6)Gal = molecular target: GlcA(b1-6)Gal
In short: as §1

[6] = molecular target: GlcNAc(a1-3)Gal(b1-4)GlcNAc
In short: as §1

[7] = molecular target: GlcNAc(a1-6)Gal(b1-4)GlcNAc
In short: as §1

[8] = molecular target: GlcNAc(b1-2)Gal(b1-3)GalNAc
In short: as §1

[9] = molecular target: GlcNAc(b1-2)Man(a1-3)[GlcNAc(b1-2)Man(a1-6)]Man(b1-4)GlcNAc(b1-4)GlcNAc
In short: as §1

GlcNAc(b1-3)Gal = molecular target: GlcNAc(b1-3)Gal
In short: as §1

[10] = molecular target: GlcNAc(b1-3)Gal(b1-3)GalNAc
In short: as §1

B1: Surfactant Protein D (Human); Neck + Carbohydrate Recognition Domain (NCRD) (Homo sapiens) (protein)
chain: MLLFLLSALVLLTQPLGYLEAEMKTYSHRTMPSACTLVMCSSVESGLPGRDRDGREGPRGEKGDPGLPGAAGQAGMPGQAGPVGPKGDNGSVGEPGPKGDTGPSGPPGPPGVPGPAGREGALGKQGNIGPQGKPGPKGEAGPKGEVGAPGMQGSAGARGLAGPKGERGVPGERGVPGNTGAAGSAGAMGPQGSPGARGPPGLKGDKGIPGDKGAKGESGLPDVASLRQQVEALQGQVQHLQAAFSQYKKVELFPNGQSVGEKIFKTAQFVKPFTEAQLLCTQAGGQLASPRSAAENAALQQLVVAKNEAAFLSMTDSKTEGKFTYPTGESLVYSNWAPGEPNDDGGSEDCVEIFTNGKWNDAACGEKRLVVCEF
glycan array binding signal (z-score) [1]: -0.152 | glycan array binding signal (z-score) [2]: -0.331 | glycan array binding signal (z-score) (Gal3S(b1-3)GalNAc): 0.428 | glycan array binding signal (z-score) (Gal3S(b1-3)GlcNAc): 0.05 | glycan array binding signal (z-score) [3]: 0.046 | glycan array binding signal (z-score) (Gal3S(b1-4)Glc): -0.322 | glycan array binding signal (z-score) (Gal3S(b1-4)Glc6S): 0.564 | glycan array binding signal (z-score) (Gal3S(b1-4)GlcNAc): 0.127 | glycan array binding signal (z-score) (Gal3S(b1-4)GlcNAc6S): 0.4 | glycan array binding signal (z-score) [4]: 0.051 | glycan array binding signal (z-score) (Gal3S4S(b1-4)GlcNAc): 0.063 | glycan array binding signal (z-score) (Gal3S6S(b1-4)GlcNAc): 0.541 | glycan array binding signal (z-score) (Gal3S6S(b1-4)GlcNAc6S): 0.624 | glycan array binding signal (z-score) (Gal4S(b1-4)GlcNAc): 0.25 | glycan array binding signal (z-score) (Gal4S6S(b1-4)GlcNAc): 0.061 | glycan array binding signal (z-score) (Gal6S(b1-4)Glc): 0.067 | glycan array binding signal (z-score) (Gal6S(b1-4)Glc6S): 0.522 | glycan array binding signal (z-score) (Gal6S(b1-4)GlcNAc): 0.075 | glycan array binding signal (z-score) (Gal6S(b1-4)GlcNAc6S): -0.324 | glycan array binding signal (z-score) (GalNAc(a1-3)Gal): -0.339 | glycan array binding signal (z-score) (GalNAc(a1-3)GalNAc): -0.036 | glycan array binding signal (z-score) (GalNAc(b1-3)Gal): -0.337 | glycan array binding signal (z-score) [5]: -0.271 | glycan array binding signal (z-score) (GalNAc(b1-3)GalNAc): -0.381 | glycan array binding signal (z-score) (GalNAc(b1-4)GlcNAc): -0.186 | glycan array binding signal (z-score) (Glc(a1-4)Glc): -0.414 | glycan array binding signal (z-score) (Glc(a1-6)Glc(a1-6)Glc): -0.376 | glycan array binding signal (z-score) (Glc(b1-4)Glc): -0.271 | glycan array binding signal (z-score) (Glc(b1-6)Glc): -0.1 | glycan array binding signal (z-score) (GlcA(b1-3)Gal): -0.187 | glycan array binding signal (z-score) (GlcA(b1-3)GlcNAc): -0.09 | glycan array binding signal (z-score) (GlcA(b1-6)Gal): -0.241 | glycan array binding signal (z-score) [6]: 0.13 | glycan array binding signal (z-score) [7]: -0.085 | glycan array binding signal (z-score) [8]: -0.27 | glycan array binding signal (z-score) [9]: -0.308 | glycan array binding signal (z-score) (GlcNAc(b1-3)Gal): -0.29 | glycan array binding signal (z-score) [10]: -0.384
